These results are taken from the supplement of paper PMC11417369.

The other results are listed elsewhere or left out.

The experiment deals with PfHDP1 homeodomain (GST-tagged). Kind of experiment: gcPBM binding intensity (ln(normalized median fluorescence intensity)); higher = stronger DNA binding. The gist of the method: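 Probes on an Agilent 4 × 180k array were primer-extended, double-stranded and 36 bp long, taken from intergenic genomic regions, with negative controls added. GST-tagged P. falciparum DNA-binding domains from E. coli, about 25 μg on average, were applied to the array for 1 h in 1× PBS containing 1% milk, 0.2 mg/ml BSA, 0.5% salmon testes DNA and 0.03% Triton X-100. Binding intensity, obtained after Alexa488 anti-GST antibody detection and a 488 nm scan, is the highest Masliner-normalised natural-log median intensity across replicate spots of either probe orientation.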
Regarding “AATATTAAAATAAAAAGTACTTATTTATGTATGTTG [XGTACX_site2682]”, the “gcPBM binding intensity (ln)” value was 6.41.
For “TGTATAATATTTGGTGCACACAAATTAACAACTGTT [CACACA_site9245]” the value was 10.6; for “TTTATATAACAACAAAATGGAAATATATATGTATGT [TGCATGCA_negctrl_site98]”, 6.7; for “ATAAAAAAAAAAAAAAGTACACATATAAAAGTATTG [XGTACX_site8265]”, 6.39.
Regarding “TAAATAATATCTATCACACACGCATAAATACAGATA [CACACA_site5449]”, the “gcPBM binding intensity (ln)” value is 6.55.
Next, “ATTTATTTTATTTTCACACACAAAAATAAATATCCG [CACACA_site2414]”: 6.61; “AAATTTATGTGTGCCTGTACATATCAAAGATTTAAG [XGTACX_site8547]”: 6.36; “CGCAATTAAAATATGTGTCCTCATTTTATAACATTT [XGTACX_site5340]”: 6.41.
On to “ATTCTACCACGCGATATACACACTTGTAGACATCTT [CACACA_site188]”, for which the “gcPBM binding intensity (ln)” value was found to be 6.92.
For “TATAATGTATGTAGTGCACACCTCTATAATATATTA [CACACA_site8560]” the value was 9.5; for “ATATATCTATAAAAGGCTTCCCACTTTTTTTGTCAA [TGCATGCA_negctrl_site332]”, 6.39; for “ATAATAAAAAAAATTAGTACATATATAAATATAAAT [XGTACX_site1937]”, 6.11.
For “TAATTTCTTAGGTATTGTACAAATATTATATGATAT [XGTACX_site256]” the value was 6.78.
Next, “AGTACATTTTTGTGTGTGCACTAATATTATATACTT [GTGCAC_site9568]”: 9.81; “AATAAATAAAGAAGTACACACATATATATATATATA [CACACA_site4314]”: 9.39.
Consider “TATTTTTAAAATATAAGTAAAAAAATAATATAAACT [TGCATGCA_negctrl_site283]”, for which the “gcPBM binding intensity (ln)” value was 6.59.
For “AAATGAATAAATAGGTCACACACAAATATATATAAA [CACACA_site8764]” the value was 6.98; for “ATATATATATATATATGTACATATACATATGTGCAA [XGTACX_site5604]”, 9.34; for “TATATTAAAAAAGAGGTGCATTCGTAAGAGGTTAAA [GTGCAC_site9720]”, 8.15.
For “TCATATTGGCTGTTCTGTACTTATAAGTTTTAAAGA [XGTACX_site5593]” the value was 6.79.
Next, “ATGTAATATTTACAACGTACAAATTATAAACATATT [XGTACX_site603]”: 6.34; “TTTGTTAATATAAAAACACACAAAAATAACATAAAA [CACACA_site2619]”: 6.86.
For the sequence “GACATAGTCATATACTGTACTTTATATTATTGTGTA [XGTACX_site6636]”, the “gcPBM binding intensity (ln)” value turned out to be 5.97.
For “TACAGATATAAACACACACACATATATATATATATA [CACACA_site4846]” the value was 9.27; for “TTTTTTTTTTTTTTTTGTACTTATAAAAAATTTTTT [XGTACX_site1249]”, 6.43.
For “TTTTTTTTCATTGGTTGTACAATATTTATAATTCAC [XGTACX_site7036]” the value was 7.23.
Next, “AATCCCCACTTGTCAAGTACATATATCATGGATGAA [XGTACX_site3486]”: 6.51.
Take “GCCAAAATCTAATTTACACACTTATTAAATAATTAC [CACACA_site6251]”: the “gcPBM binding intensity (ln)” value was 6.56.
As for “TATTTATAACAAAGGTTAAATTAAAACTAATCCACA [TGCATGCA_negctrl_site3]”, the “gcPBM binding intensity (ln)” value was 6.
For “TCATAAAAACTAATACGTACTTAAAAATATGAACTT [XGTACX_site2939]” the value was 6.23; for “AAAAAAAAGTTGTATTGTACAAAAAAAAAAAAAAAA [XGTACX_site8334]”, 6.27.
For “TTATGTAAAAAAAAAAAAAAAAAAAAAAAAAAAAAA [CACACA_negctrl_site984]” the value was 5.88; for “GATAAAGTACTTTATACACACAAATATTTATTTATA [CACACA_site7795]”, 6.51.
For “TCTTCATATAAGAACACATGCAGATTTTTATTATTG [TGCATGCA_site682]” the value was 6.16; for “AAAAAAAAAAAAAAACGTACACATATTATGTTATTT [XGTACX_site5264]”, 6.54; for “CATATAATATAATTATGTACATATATAATAATATAC [XGTACX_site5278]”, 6.52.
In the case of “AAAATATTTCATATATGTACTTAAAAAAAAAAAAAA [XGTACX_site5399]”, the “gcPBM binding intensity (ln)” value came to 6.47.
Next, “TATTATATATATGTTGACATATTTGTACACTCCACT [TGCATGCA_negctrl_site200]”: 6.92.
For “GAATATATAAGATACACACACAAATTAAATATAAAA [CACACA_site2781]” the value was 6.97.
For “AAAAAATTCATATATACACACACGCACATATATATA [CACACA_site4226]” the value was 7.05; for “AAAAAAAAAAAAAACACACACACACGCATAAATATA [CACACA_site6217]”, 6.82; for “CACTTTTCTGGAAAAATTCCCACATTTTTTTATTAA [GTGCAC_negctrl_site322]”, 6.29.
Take “GTACAAAAAAAAATAAAATACATATATATATATATA [GTGCAC_negctrl_site364]”: the “gcPBM binding intensity (ln)” value was 9.29.
Take “GGGCATATAATATAAAGTACAGGACTATAAAAATAT [XGTACX_site4481]”: the “gcPBM binding intensity (ln)” value turned out to be 6.28.
In the case of “TATTATATGTATTGCACACCTTCAACAACTACTTCT [CACACA_site655]”, the “gcPBM binding intensity (ln)” value is 10.6.
In the case of “ATATCTATAATAAACACACACATATACCTATAGGTA [CACACA_site7596]”, the “gcPBM binding intensity (ln)” value turned out to be 6.86.
As for “ATTGTGCACTTATATGCACACATTTTAGTTTTTTTT [CACACA_site2028]”, the “gcPBM binding intensity (ln)” value came to 11.5.
For “TATATATAGAAACACACACACATATATATATATTTT [CACACA_site2540]” the value was 6.81.
Next, “TATATATTATAAAATAGTACACAGAATTTAAATATA [XGTACX_site100]”: 6.57.
Next, “TCTTTTAAACAGTACACACACACATATATATATATA [CACACA_site924]”: 9.27; “AATATTTTTTTATAAACACACATATAAATAAATATA [CACACA_site7622]”: 6.46.
With “TTGTTGATTGTTATTTATCATTAGATGTAAAATATG [CACACA_negctrl_site927]”, the “gcPBM binding intensity (ln)” value was 6.35.
Next, “GTTATAAAATATGGCACACAAAATGTAAGTAAATGA [CACACA_site1458]”: 6.79; “ATATATTTTGTTATGGTGCGTAAGAAATATATTCTT [GTGCAC_site9825]”: 7.37; “GATCTTTAAATTTATTGTACATAAATGTATATGTTA [XGTACX_site1107]”: 6.53.
Next, “TTTATTTATCTGAACACATGCAGACAAATAACATAT [TGCATGCA_site929]”: 6.47; “TATCACATATTATGATGTACAAGGATTCTGACTAAT [XGTACX_site1196]”: 6.21.
Next, “CATAAACTTTATAACACACACTTATAAATATAAATA [CACACA_site6646]”: 6.6; “ATTATATATAAACACACACACATGCATGCACATATA [CACACA_site4237]”: 10.5.
As to “TTTTTTTATATTTTTAGTACACATTGGTATATATAT [XGTACX_site4114]”, the “gcPBM binding intensity (ln)” value worked out at 6.77.
Next, “TATTTTTTTAAAAATACACACATAAAATCATGAAAA [CACACA_site1085]”: 6.63; “ATATATATATGTCAAAGTACTAAAAATATATACATA [XGTACX_site3397]”: 8.32.
In the case of “TTATGAAATAGAATAACACACATATTTATATATGTG [CACACA_site2050]”, the “gcPBM binding intensity (ln)” value came out at 6.2.
For “CATAGAATAATTTATTGTACGTGCATGCTATTTTTT [XGTACX_site8984]” the value was 8.38; for “AAAATAAATTTTTATGTTATATATACAATTTCTCTA [CACACA_negctrl_site1760]”, 6.22.
Next, “AATGCTATCTTCTTATTTTTCATACACAACATGAAC [CACACA_negctrl_site1809]”: 7.04; “TATAATATTTATATAACACACATATATATTTATTTA [CACACA_site280]”: 6.34.
For “TATACATTTTTATAAAGTACACAAAAATAAATATAA [XGTACX_site1647]” the value was 6.42; for “AAACAGAATACATATACACACATACAAAAAAGTGCA [CACACA_site8235]”, 6.69.
Consider “ATTAAATATATGATGTGTACATATTCGTGTATGTTT [XGTACX_site2141]”, for which the “gcPBM binding intensity (ln)” value came out at 6.51.
“TTTTAATAATTTATAAAAAAAAAAAAAAAATAAATA [TGCATGCA_negctrl_site419]”: the “gcPBM binding intensity (ln)” value was found to be 5.98.
Next, “TTTAATGAAAGAAACACATACGTATCAAAATATATG [TGCATGCA_negctrl_site510]”: 6.68; “TACGTTGTATATTTTTGTACATATTGAATTACAAAA [XGTACX_site5906]”: 6.44.
Next, “AATAAAATATAATAATTAATATATATATATATATAA [GTGCAC_negctrl_site457]”: 6.61; “TTATGTTGTAAATACACACATACATATACATACACA [CACACA_site733]”: 6.96.
For “TATGTGAAATAAGGATGTACAATTTTGATTTCCCCA [XGTACX_site8389]” the value was 6.82; for “GTGTACAAAATATGGTAATAAAGTAGTTACATGAAT [CACACA_negctrl_site1775]”, 6.81; for “CTAAATTGTTAATAGAGTACATTTGTATAATATAAG [XGTACX_site594]”, 6.44.
“AAAGCAAATAATAAGTGTACGGGTCAATATATGCGT [XGTACX_site1519]”: the “gcPBM binding intensity (ln)” value is 6.81.
Next, “CATATAAACAATAACACACACCTAGGTACATGGAAA [CACACA_site4615]”: 6.69; “CTTTTTAATTTATCGACACACGCATGAATAGAAATT [CACACA_site9112]”: 6.32.
On to “TTCATATGGAATAAAAGTACGTATTAAAACAATTTT [XGTACX_site8742]”, for which the “gcPBM binding intensity (ln)” value amounted to 6.54.
On to “GAACAATATATTTGCACACAAAAAATATATATTTAT [CACACA_site3317]”, for which the “gcPBM binding intensity (ln)” value is 10.7.
For “GAATACTCATTTCTTTGTACATATATATGTGTATTT [XGTACX_site6411]” the value was 6.71; for “TAGATTTAAAAAAAAAAAAAATTTTTTTTTTTTTTT [TGCATGCA_negctrl_site593]”, 5.94; for “ATACAAGTATTAATTACACACTCAAAAAGAAAAAAC [CACACA_site5287]”, 6.75.
Next, “GGATAAAAAATATGTACACACATATAGATATCTATA [CACACA_site2693]”: 6.45.
